# The whole screen tested about 310,000 compounds, of which about 14,000 (4.5%) showed an effect of 50% or more. Effects have a minus sign here. This is one part of the list.
# Molecular target: human ether-à-go-go-related gene (hERG) potassium channel (human, UniProt Q12809)
# Experiment: primary screen, population patch clamp on CHO cells stably expressing hERG
# 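Note: peak tail current of the secondary pulse compared with the same well before compound.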
# Sequence of human ether-à-go-go-related gene (hERG) potassium channel (Q12809 whole entry, looked up): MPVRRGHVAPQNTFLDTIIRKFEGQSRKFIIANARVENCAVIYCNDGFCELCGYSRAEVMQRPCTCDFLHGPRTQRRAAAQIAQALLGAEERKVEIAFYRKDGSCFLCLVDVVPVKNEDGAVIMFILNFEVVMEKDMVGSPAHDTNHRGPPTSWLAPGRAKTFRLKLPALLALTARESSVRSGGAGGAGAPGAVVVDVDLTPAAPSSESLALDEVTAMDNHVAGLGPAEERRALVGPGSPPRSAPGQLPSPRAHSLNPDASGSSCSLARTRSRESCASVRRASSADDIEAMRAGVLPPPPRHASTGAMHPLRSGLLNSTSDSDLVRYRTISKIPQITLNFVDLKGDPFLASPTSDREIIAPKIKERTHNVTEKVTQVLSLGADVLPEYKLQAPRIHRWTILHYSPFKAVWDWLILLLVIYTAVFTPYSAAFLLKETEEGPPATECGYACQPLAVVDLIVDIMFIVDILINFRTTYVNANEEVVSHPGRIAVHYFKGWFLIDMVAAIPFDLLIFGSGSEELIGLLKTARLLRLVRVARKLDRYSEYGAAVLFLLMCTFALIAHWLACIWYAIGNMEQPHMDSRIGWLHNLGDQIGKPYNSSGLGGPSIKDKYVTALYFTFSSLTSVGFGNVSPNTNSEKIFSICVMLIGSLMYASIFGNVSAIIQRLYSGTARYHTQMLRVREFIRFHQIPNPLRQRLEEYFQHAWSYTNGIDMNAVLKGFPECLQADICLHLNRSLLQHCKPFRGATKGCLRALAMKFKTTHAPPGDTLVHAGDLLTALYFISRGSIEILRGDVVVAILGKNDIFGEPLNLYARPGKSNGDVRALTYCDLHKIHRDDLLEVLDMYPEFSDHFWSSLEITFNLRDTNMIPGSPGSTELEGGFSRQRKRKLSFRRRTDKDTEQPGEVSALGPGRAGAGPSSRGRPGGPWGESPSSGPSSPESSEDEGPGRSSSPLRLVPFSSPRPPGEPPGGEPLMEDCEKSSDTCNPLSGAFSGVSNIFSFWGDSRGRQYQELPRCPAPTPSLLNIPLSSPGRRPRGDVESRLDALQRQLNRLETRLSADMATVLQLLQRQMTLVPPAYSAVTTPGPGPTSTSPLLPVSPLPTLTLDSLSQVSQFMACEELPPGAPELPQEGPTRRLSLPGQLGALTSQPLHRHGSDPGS
row,Structure (SMILES),"hERG current change (%, negative = inhibition) at 10uM [%]"
1,O=[n+]1c2c(n([O-])c3ccccc31)CCCC2,5.87
2,CCCN1CCN(C(=O)Cn2cnc3ccc(S(=O)(=O)N4CCC(C)CC4)cc3c2=O)CC1,-36.3
3,Cc1cccc(NC(=O)CSCc2cc(=O)n3ccsc3n2)c1C,13.3
4,C/C=C(\C)C(=O)O[C@@H]([C@H](O)c1cc2ccc(=O)oc2cc1OC)C(C)(C)O,11.6
5,O=C(COc1ccc(-n2cnnn2)cc1)Nc1ccc(F)c(F)c1F,5.48
6,O=C(CN1CCN(c2ccccc2)CC1)c1c[nH]c2ccccc12,-0.617
7,Cc1cc(C(C)(C)C)ccc1NC(=O)CC(C)(C)CC(=O)O,11.7
8,COc1cc(NC(=O)Cc2nn(C)c(=O)c3ccccc23)cc(OC)c1,4.35
9,CCCNc1cc(=S)nc(N)[nH]1,17.2
10,Cc1ccc(C(=O)NC2(C(Cl)Cl)N=C(c3ccccc3)N=C2N)cc1 (centres unmarked),9.56
11,Cc1cccc2nc(-c3cccnc3)c(NCCC(C)C)n12,-20
12,COc1ccc(-c2cc3nc4c(c(=O)n3[nH]2)CCC4)cc1,3.27
13,CC(C)CN1C(=O)C(=O)N(CC(=O)Nc2cccc(Cl)c2Cl)C1=O,-3.9
14,Cc1c(O)ccc(C(=O)COc2ccc(F)cc2)c1O,6.74
15,COc1cc2c(cc1OC)C(C)N(S(=O)(=O)c1ccc(Cl)nc1)CC2 (centres unmarked),-8.5
16,CSc1nc2ccc3nc(NC(=O)c4cccs4)sc3c2s1,-19
17,O=C(CN1C(=O)c2ccccc2C1=O)OCC(=O)N1CCN(c2ccccc2)CC1,-0.838
18,O=C(Cn1cc2c(n1)CCCCC2)NC1CCCCCC1,0.992
19,CC(=O)NCC12CC3CC(C1)CC(C(=O)O)(C3)C2,5.01
20,CCOC(=O)C1(CC2CCCCO2)CCN(S(=O)(=O)c2cc(C)cs2)CC1 (centres unmarked),-59
21,Cc1cccc2c1NC(=O)C2(c1ccc(O)cc1)c1ccc(O)cc1,6.23
22,CC(=O)Oc1ccc(N(C(C)=O)S(=O)(=O)c2ccc3ccccc3c2)cc1Br,11.6
23,O=C(Nc1ccc(Cl)c(Cl)c1)c1ccncc1,-40.1

row,Structure (SMILES),"hERG current change (%, negative = inhibition) at 10uM [%]"
1,CCCCN(C)C(=O)CCCCn1c(=O)[nH]c2cc(OCC)c(OCC)cc2c1=O,-1.7
2,CCN(CC)c1ccc(C(=O)NNC(=O)CCNC(=O)c2ccccc2)cc1,-15.3
3,Cc1ccc(/C=C2/SC(=S)N(CCC(=O)NCCCN3CCOCC3)C2=O)cc1,-8.68
4,c1ccc2c(c1)CCCn1nnnc1-2,5.33
5,COc1ccc(CCNC(=O)C2CCCCC2C(=O)O)cc1OC (centres unmarked),-2.9
6,CN1CCN(c2nc(-c3ccccn3)nc3ccccc23)CC1,-51.4
7,CCCn1nc([N+](=O)[O-])c(C(C#N)c2nc3ccccc3s2)c(Cl)c1=O (centres unmarked),18.4
8,O=C(NCCN1CCOCC1)c1ccc2c(c1)N(Cc1ccccc1F)C(=O)CS2,-8.97
9,COc1cccc(CNC(=O)c2ccc3c(c2)S(=O)(=O)N=C2CCCCCN23)c1,-0.139
10,Cc1nn(C)c(C)c1NS(=O)(=O)c1cccc(Br)c1,18.3
11,COc1ccc(NC(=O)c2c(NC(=O)CCC(=O)O)sc3c2CCCCC3)cc1,23.8
12,Cc1cc(O)c(C(C[N+](=O)[O-])c2ccc(Cl)cc2Cl)c(=O)o1 (centres unmarked),6.51
13,O=C(/C=C/c1ccc(Cl)c([N+](=O)[O-])c1)Nc1cccc(NC(=O)c2ccco2)c1,2.38
14,CSc1ccccc1NC(=O)CN1CC(C)OC(C)C1 (centres unmarked),-3.75
15,Cc1ccc(C(CCNC(C)c2cccs2)c2ccco2)cc1 (centres unmarked),-57.1
16,O=C(N/N=C/c1c(Cl)cccc1Cl)c1ccc(F)cc1,-3.1
17,CCOC(=O)C1=C(C)OC(N)=C(C#N)C12C(=O)N(C)c1ccccc12 (centres unmarked),15.2
18,CC(NC(=O)CC1SC(N)=NC1=O)c1ccccc1 (centres unmarked),18.6
19,Cc1ccc(S(=O)(=O)NCCc2ccccc2)cc1,3.3
20,CCCC(C)(COC(N)=O)COC(=O)NC(C)C (centres unmarked),0.849
21,CC1(C)CC(=O)C=C(NNC(=O)c2ccccc2)C1,22.6
22,Cc1cccc(OCc2nnc(NC(=O)Cc3cccs3)s2)c1,13.6
23,CCC/C=N/NC(=O)c1ccc(F)cc1,8.78

row,Structure (SMILES),"hERG current change (%, negative = inhibition) at 10uM [%]"
1,CN(C)S(=O)(=O)c1cccc(COC(=O)c2cc([N+](=O)[O-])ccc2N2CCOCC2)c1,-52.7
2,Cc1cc(=O)cc(C)n1-c1ccc(O)cc1,26.1
3,CCn1nc(C)c(CNC(=O)C2CCC(=O)N(CCc3ccc(OC)cc3)C2)c1C (centres unmarked),11.6
4,CNC(=O)CSc1nnc(-c2ccc(S(=O)(=O)N3CCCC3)cc2)n1-c1cccc(C)c1C,-7.16
5,O=C(O)CC/C(=N\Nc1ccc(S(=O)(=O)N2CCOCC2)cc1[N+](=O)[O-])c1cccs1,4.01
6,O=C1C=C(N(CCO)CCO)C2(CCCCC2)O1,0.946
7,O=C(CCNS(=O)(=O)c1ccccc1)N1CCN(c2ccccc2F)CC1,-26.8
8,Cc1ccc(C)c(NC(=S)NCCc2ccc(S(N)(=O)=O)cc2)c1,-5.97
9,CCOc1ccccc1-c1nc(CN2CCC(C(=O)N3CCOCC3)CC2)c(C)o1,-5.13
10,O=C(CSc1ccccc1C(=O)O)Nc1cccc(C(=O)O)c1,6.88
11,CC(=O)c1sc(NC(=O)CCN2C(=O)c3ccccc3C2=O)nc1C,10.6
12,Cc1cc(N/C=C/C(=O)c2ccc(Br)cc2)no1,0.138
13,COc1ccc(CNC(=O)C2CCN(c3nc(OC)nc(OC)n3)CC2)cc1,-65.1
14,COc1cccc(NC(=O)CN(C)C(=O)c2cc(C)on2)c1,9.91
15,CC(C)(C)NC(=O)CCN(/N=C/c1ccccc1)C1=NS(=O)(=O)c2ccccc21,4.51
16,CC(NC(=O)c1ccc(CS(=O)(=O)c2ccc(Cl)cc2)o1)c1ccc2c(c1)OCCO2 (centres unmarked),-18.9
17,O=C1c2ccccc2NC(c2ccc(-c3cccc([N+](=O)[O-])c3)o2)N1O (centres unmarked),-18.6
18,COc1ccc(C)cc1S(=O)(=O)n1cnc(C)c1,21.3
19,OC1CCCN(Cc2cn(Cc3ccccc3)nc2-c2cc3ccccc3o2)C1 (centres unmarked),-44.7
20,CCc1ccccc1NC(=O)CSc1nnc(C2CC2)n1CC1CCCO1 (centres unmarked),3.72
21,COc1ccc2oc(=O)cc(CN(C)Cc3ccccc3)c2c1,-11.5
22,O=C(CCSc1ccc(Cl)cc1)N1CCN(c2ncccn2)CC1,-60.6
23,CCCc1cc(=O)[nH]c(SCC(=O)c2cc(C)n(CCOC)c2C)n1,5.72

row,Structure (SMILES),"hERG current change (%, negative = inhibition) at 10uM [%]"
1,CCCSc1cc(N2CCOCC2)nc(-c2ccccc2Cl)n1,-1.91
2,COc1ccc(NC(=O)c2ccc3[nH]c(C)c(C)c3c2)c(OC)c1,12.8
3,Cc1ccc(OCC(=O)Nc2ccccc2F)cc1C,23.6
4,CCOC(=O)c1ccc(S(=O)(=O)N(CCO)Cc2cc3cc(OC)c(OC)cc3[nH]c2=O)cc1,6.66
5,CCOC(=O)c1cccc(Nc2nc(C)cc(C)n2)c1,10.7
6,CCOC(=O)C1=C(CC)Nc2ccccc2N/C1=N\S(=O)(=O)c1ccccc1OC,13.7
7,Cc1cc(Nc2ccccc2)c2c([N+](=O)[O-])ccc(C)c2n1,-24.7
8,COc1ccc(OC)c(NP(=O)(Oc2ccccc2)Oc2ccccc2)c1,0.409
9,CC(C)(C)c1nnc(NC(=O)C2CC(=O)N(CCc3ccc(F)cc3)C2)s1 (centres unmarked),1.33
10,CCOC(=O)C(=O)Nc1nc(-c2ccccc2)c(-c2ccccc2)o1,-32.1
11,COc1ccc(CNc2nc3c(c(=O)[nH]c(=O)n3C)n2Cc2ccccc2C)cc1,4.58
12,O=C(COCc1cc(-c2ccc3c(c2)OCO3)on1)N1CCN(c2cccc(Cl)c2)CC1,9.68
13,CCOCCCN(C)C1CCN(C(=O)c2oc3ccccc3c2NC(=O)Cc2ccc([N+](=O)[O-])cc2)CC1,-81.5
14,CCc1ccc2oc(=O)cc(CN3CCN(c4ccc(F)cc4)CC3)c2c1,-10.1
15,O=C(Cc1ccccc1)NNC(=O)Nc1ccccc1,14.7
16,CCCn1nc(NC(=O)c2ccco2)c2cc3ccc(C)cc3nc21,5.09
17,COc1ccc2cc(-c3[nH]ncc3CN3CCCCO3)ccc2c1,6.99
18,O=C(O)C1C2CCC(C2)C1C(=O)Nc1ccccc1 (centres unmarked),0.942
19,COc1ccc(CN(Cc2ccccn2)S(=O)(=O)c2ccc(-n3cnnn3)c(OC)c2)cc1,-47.2
20,Cc1ccc(C2=NN(C(=O)CCC(=O)O)C(c3ccc4c(c3)OCO4)C2)cc1 (centres unmarked),-2.17

# — article PMC4336329 (PLoS ONE, 2015)
